The source of these data is US20260216242A1, “ALPP-SPECIFIC VARIANT ANTIGEN BINDING MOLECULES” (ALMAC DISCOVERY LIMITED, priority 2022, published 2026).

In general, IC50 refers to the concentration that inhibits the measured activity by half. Lower therefore signals inhibition by little substance.

The test has as its target ALPP/ALPPL2 on ALPP/ALPPL2 positive cancer cells. In words: cell-based or functional assay.

B1: D10 A06-hFc (S239C F405L/K409R) conjugated to MC-vc-PAB-MMAE (Fc fusion, DAR 2.8)
chain 1: QVQLVESGGGLVQPGGSLRLSCAASGSIFSVNTMGWYRQAPGKQRDLVAVATSGGTIHYADSVKGRFTISRDNAKNTVYLQMNSLKPEDTAVYYCNLVVPYGMIAGDHDYWGQGTKVTVSSGGGGSGGGGSGGGGS[human IgG1 Fc with changes not spelt out]
chain 2: QVHLVESGGGLVQAGGSLRLSCAASGRTFLSMGWFRQAPGKEREFVAAISWTGGSTGYADSVKGRFTISRESDKETMYLQMNSLKPEDTAVYYCAARGDVYYGGDDATRYKYWGQGTQVTVSSGGGGSGGGGSGGGGS[human IgG1 Fc with changes not spelt out]
modifications: here or on the partner: MC-vc-PAB-MMAE on Cys 239 (S239C, EU numbering)
As for B1, the IC50 @ 96 h (nM), cell-killing of NCI-H1651 cells (Cell Titre Glo) worked out at 10.4 nM.

B2: D10 F05-hFc (S239C T366Y/Y407T) [G4S]3 conjugated to MC-vc-PAB-MMAE (Fc fusion)
chain 1: QVQLVESGGGLVQPGGSLRLSCAASGSIFSVNTMGWYRQAPGKQRDLVAVATSGGTIHYADSVKGRFTISRDNAKNTVYLQMNSLKPEDTAVYYCNLVVPYGMIAGDHDYWGQGTKVTVSSGGGGSGGGGSGGGGS[human IgG1 Fc with C220S S239C T366Y (EU numbers) not spelt out]
chain 2: QVQLVESGGGLVQAGGSLRLSCAASGRAFGDYNIGWFRQAPGKEREFVARRTWDGSSTRYDDSVKGRFTVSIDNAKNTAYLQMNSLKTEDTAVYYCAAGRYSRVRGWEYDYWGQGTQVTVSSGGGGSGGGGSGGGGS[human IgG1 Fc with C220S S239C Y407T (EU numbers) not spelt out]
modifications: here or on the partner: MC-vc-PAB-MMAE on Cys 239 (S239C, EU numbering)
The molecule B2 came in with a % viability remaining, MDA-MB-468 cells of 32%; a % viability remaining, MKN-1 cells of 26%; a % viability remaining, NCI-H1651 cells of 31%; an IC50 at 96 h (nM), cell-killing of MDA-MB-468 cells (Cell Titre Glo) of 237 nM. The IC50 at 96 h (nM), cell-killing of MKN-1 cells (Cell Titre Glo) was determined as 4.5 nM; the IC50 at 96 h (nM), cell-killing of NCI-H1651 cells (Cell Titre Glo) amounted to 35.7 nM; the IC50 at 96 h (nM), cell-killing of NCI-N87 cells (Cell Titre Glo) was greater than 1000 nM.
